The list shows a part of the results.
Legend:
[1] = test system: HSkMC (human skeletal muscle cells); experiment: cytotoxicity call (relative viability < 0.9); conditions: 10 µM
[2] = test system: HepG2; experiment: cytotoxicity call (relative viability < 0.9); conditions: 10 µM
[3] = test system: S. aureus RN4220; experiment: growth inhibition call (relative growth <= 0.2); conditions: 50 µM

| Structure (SMILES) | cytotoxicity call [1] | cytotoxicity call [2] | growth inhibition call [3] |
| --- | --- | --- | --- |
| CC(C)C#Cc1cnc2c(c1)C(=O)N([C@H](C)CO)C[C@@H](C)[C@H](CN(C)C(=O)c1ccc3c(c1)OCO3)O2 | inactive | inactive | inactive |
| COc1ccc(CN(C)C[C@H]2Oc3ccc(NC(=O)CCCCCC(=O)Nc4ccccc4N)cc3C(=O)N([C@H](C)CO)C[C@H]2C)cc1 | inactive | inactive | inactive |
| COc1ccc(NC(=O)Nc2ccc3c(c2)C(=O)N([C@H](C)CO)C[C@@H](C)[C@H](CN(C)S(=O)(=O)c2ccc(Cl)cc2)OCCCC[C@H](C)O3)cc1 | inactive | inactive | inactive |
| COc1ccc(NC(=O)Nc2ccc3c(c2)C(=O)N([C@@H](C)CO)C[C@@H](C)[C@H](CN(C)C(=O)Nc2ccc(C(F)(F)F)cc2)O3)cc1 | inactive | inactive | inactive |
| Cc1noc(C)c1NC(=O)N(C)C[C@@H]1Oc2ccc(NC(=O)Nc3ccc(C(F)(F)F)cc3)cc2C(=O)N([C@@H](C)CO)C[C@@H]1C | inactive | inactive | inactive |
| C[C@@H]1CCCCO[C@@H](CN(C)C(=O)c2ccccc2)[C@H](C)CN([C@@H](C)CO)C(=O)c2cc(NS(=O)(=O)c3ccc(Cl)cc3)ccc2O1 | inactive | inactive | inactive |
| CCN(CC)CCCC(C)Nc1c2ccc(Cl)cc2nc2ccc(OC)cc12.Cl.Cl (configuration not stated) | inactive | active | inactive |
| C[C@@H]1CN([C@H](C)CO)C(=O)c2ccccc2-c2ccccc2CO[C@@H]1CN(C)C(=O)Nc1ccc(-c2ccccc2)cc1 | inactive | inactive | inactive |
| COc1ccc(NC(=O)Nc2ccc3c(c2)C(=O)N([C@H](C)CO)C[C@H](C)[C@@H](CN(C)Cc2ccc(C(F)(F)F)cc2)O3)cc1 | inactive | inactive | inactive |
| Cc1ccc(S(=O)(=O)Nc2ccc3c(c2)CC(=O)N([C@H](C)CO)C[C@H](C)[C@H](CN(C)C(=O)Nc2cccc4ccccc24)O3)cc1 | inactive | inactive | inactive |
| COc1ccc(S(=O)(=O)Nc2ccc3c(c2)C(=O)N([C@@H](C)CO)C[C@@H](C)[C@H](CN(C)C(=O)Nc2ccccc2)OCCCC[C@@H](C)O3)cc1 | inactive | inactive | inactive |
| NC(=O)[C@H]1[C@H](C(=O)O)[C@@H]2C=C[C@H]1C2 | inactive | inactive | inactive |
| O=C(C[C@H]1CC[C@H]2[C@@H](COC[C@@H](O)CN2S(=O)(=O)c2ccccc2)O1)N1CCc2ccccc2C1 | inactive | inactive | inactive |
| C[C@H]1CN([C@@H](C)CO)C(=O)CCCn2cc(nn2)CO[C@H]1CN(C)C(=O)Nc1ccc(N2CCN(C)CC2)cc1 | inactive | inactive | inactive |
| CCCNC(=O)N(C)C[C@@H]1Oc2cc(-c3ccc(C)cc3)ccc2S(=O)(=O)N([C@@H](C)CO)C[C@H]1C | inactive | inactive | inactive |
| Cc1ccc(S(=O)(=O)Nc2ccc3c(c2)CC(=O)N([C@H](C)CO)C[C@H](C)[C@@H](CN(C)C(=O)NC(C)C)O3)cc1 | inactive | inactive | inactive |
| C[C@@H]1CN([C@H](C)CO)C(=O)Cc2cc(NC(=O)c3ccncc3)ccc2O[C@H]1CN(C)S(C)(=O)=O | inactive | inactive | inactive |
| CC(C)NC(=O)N(C)C[C@@H]1Oc2c(NS(=O)(=O)c3cn(C)cn3)cccc2C(=O)N([C@H](C)CO)C[C@@H]1C | inactive | inactive | inactive |
| C[C@@H]1CN([C@@H](C)CO)C(=O)CCCn2nncc2CO[C@@H]1CN(C)C(=O)Nc1ccc2c(c1)OCCO2 | inactive | inactive | inactive |
| C[C@@H]1CN([C@@H](C)CO)C(=O)Cc2cc(NC(=O)Nc3ccccc3)ccc2O[C@@H]1CN(C)Cc1ccc(C(F)(F)F)cc1 | active | active | inactive |
| C[C@@H]1CN([C@@H](C)CO)C(=O)c2cc(NC(=O)Nc3ccc(C(F)(F)F)cc3)ccc2O[C@@H](C)CCCCO[C@H]1CN(C)S(=O)(=O)c1ccc(F)cc1 | inactive | inactive | inactive |
| O=C(C[C@@H]1CC[C@H]2[C@@H](COC[C@H](O)CN2C(=O)C2CC2)O1)NCc1ccncc1 | inactive | inactive | inactive |
| C[C@H](CO)N1C[C@H](C)[C@@H](CN(C)S(=O)(=O)c2ccc(Cl)cc2)Oc2ccc(N(C)C)cc2CC1=O | inactive | inactive | inactive |
| CCCNC(=O)N1C[C@@H](O)COC[C@H]2O[C@H](CC(=O)N3CCOCC3)CC[C@@H]21 | inactive | inactive | inactive |
| Cc1noc(C)c1NC(=O)Nc1ccc2c(c1)C(=O)N([C@@H](C)CO)C[C@@H](C)[C@H](CN(C)S(=O)(=O)c1cccs1)OCCCC[C@H](C)O2 | inactive | inactive | inactive |
| Cc1noc(C)c1S(=O)(=O)N(C)C[C@H]1Oc2ccc(NC(=O)Nc3ccc4c(c3)OCO4)cc2CC(=O)N([C@H](C)CO)C[C@@H]1C | inactive | inactive | inactive |
| C[C@H](CO)N1C[C@H](C)[C@@H](CN(C)Cc2ccccc2)OCCCC[C@H](C)Oc2ccc(NC(=O)Nc3ccc(C(F)(F)F)cc3)cc2C1=O | active | active | inactive |

| Structure (SMILES) | cytotoxicity call [1] | cytotoxicity call [2] | growth inhibition call [3] |
| --- | --- | --- | --- |
| Cc1noc(C)c1NC(=O)Nc1ccc2c(c1)C(=O)N([C@@H](C)CO)C[C@@H](C)[C@H](CN(C)S(=O)(=O)c1cn(C)cn1)O2 | inactive | inactive | inactive |
| O=C(C[C@H]1C=C[C@H](NC(=O)c2cccnc2)[C@@H](CO)O1)NCCN1CCCCC1 | inactive | active | inactive |
| CCCC#Cc1ccc2c(c1)O[C@@H](CN(C)S(=O)(=O)c1cccc(F)c1)[C@H](C)CN([C@@H](C)CO)S2(=O)=O | inactive | inactive | inactive |
| C[C@@H]1CN([C@H](C)CO)C(=O)c2cccc(NS(C)(=O)=O)c2O[C@@H]1CN(C)S(=O)(=O)c1cn(C)cn1 | inactive | inactive | inactive |
| C[C@H]1CN([C@@H](C)CO)S(=O)(=O)c2ccc(C3=CCCC3)cc2O[C@H]1CN(C)S(=O)(=O)c1cn(C)cn1 | inactive | inactive | inactive |
| C[C@@H]1CN([C@H](C)CO)C(=O)c2cc(C#Cc3ccccc3)cnc2O[C@@H]1CN(C)S(=O)(=O)c1ccccc1F | inactive | inactive | inactive |
| Cc1ccc(S(=O)(=O)Nc2ccc3c(c2)CC(=O)N([C@@H](C)CO)C[C@H](C)[C@@H](CN(C)S(=O)(=O)c2cccs2)O3)cc1 | inactive | inactive | inactive |
| O=C(CCCCCNC(=O)OCc1ccc(CO[C@@H]2C[C@H](c3ccc(C(F)(F)F)cc3)C=C(C(=O)N3CCN(Cc4ccc5c(c4)OCO5)CC3)O2)cc1)NO | inactive | inactive | inactive |
| O=C(CN1CCOCC1)NCC[C@H]1CC[C@H](NS(=O)(=O)c2ccc(F)cc2)[C@H](CO)O1 | inactive | inactive | inactive |
| N[C@@H](CC(=O)O)c1cccc([N+](=O)[O-])c1 | inactive | inactive | inactive |
| C[C@@H]1CN([C@@H](C)CO)C(=O)c2cc(-c3cccc(C#N)c3)cnc2O[C@H]1CN(C)C(=O)C1CCOCC1 | inactive | inactive | inactive |
| C[C@@H]1CCCCO[C@H](CN(C)C(=O)Nc2cccc3ccccc23)[C@H](C)CN([C@H](C)CO)C(=O)c2cc(NS(=O)(=O)c3cn(C)cn3)ccc2O1 | active | active | inactive |
| COc1ccc(S(=O)(=O)Nc2ccc3c(c2)[C@@H]2C[C@H](CC(=O)NCC4CC4)O[C@@H](CO)[C@@H]2O3)cc1 | inactive | inactive | inactive |
| COc1ccc(NC(=O)Nc2ccc3c(c2)C(=O)N([C@H](C)CO)C[C@H](C)[C@H](CN(C)C(=O)Nc2ccc(C(F)(F)F)cc2)OCCCC[C@H](C)O3)cc1 | inactive | inactive | inactive |
| COc1ccc(NC(=O)N(C)C[C@H]2Oc3c(NC(=O)C4CC4)cccc3C(=O)N([C@@H](C)CO)C[C@@H]2C)cc1 | inactive | inactive | inactive |
| Br.CN1CCCC1Cc1c[nH]c2ccc(CCS(=O)(=O)c3ccccc3)cc12 (configuration not stated) | inactive | inactive | inactive |
| CN1CCN(C(=O)C[C@H]2CC[C@@H]3[C@H](COC[C@H](O)CN3C(=O)Nc3ccc4c(c3)OCO4)O2)CC1 | inactive | inactive | inactive |
| C[C@H](CO)N1C[C@H](C)[C@H](CN(C)CC2CC2)Oc2ccc(NC(=O)CCN3CCOCC3)cc2C1=O | inactive | inactive | inactive |
| CC(C)c1onc(-c2c(Cl)cccc2Cl)c1COc1ccc(C=Cc2cccc(C(=O)O)c2)c(Cl)c1 | inactive | inactive | inactive |
| Cc1oncc1C(=O)Nc1ccc(C(F)(F)F)cc1 | inactive | inactive | inactive |
| Cc1noc(C)c1S(=O)(=O)Nc1ccc2c(c1)C(=O)N([C@@H](C)CO)C[C@@H](C)[C@@H](CN(C)C(=O)NC(C)C)O2 | inactive | inactive | inactive |
| O=C(C[C@@H]1CC[C@H]2[C@@H](COC[C@H](O)CN2S(=O)(=O)c2ccc(Oc3ccccc3)cc2)O1)NCCN1CCCCC1 | inactive | inactive | inactive |
| C=CCC[C@H](Cc1ccc(F)cc1)C(=O)O[C@@H](CNC(=O)[C@@H](CC=C)CC(=O)N(CCO)Cc1ccccc1)c1ccccc1 | active | active | inactive |
| N[C@@H]1CC[C@@H](CCn2cc(C3(O)CCCC3)nn2)O[C@H]1CO | inactive | inactive | inactive |
| C[C@H](CO)N1C[C@H](C)[C@@H](CN(C)C(=O)C2CC2)Oc2cc(-c3ccc(C(=O)N(C)C)cc3)ccc2S1(=O)=O | inactive | inactive | inactive |
| Cc1noc(C)c1S(=O)(=O)Nc1ccc2c(c1)C(=O)N([C@@H](C)CO)C[C@H](C)[C@@H](CN(C)Cc1ccc(Oc3ccccc3)cc1)O2 | inactive | inactive | inactive |
| C[C@@H]1CCCCO[C@H](CN(C)C(=O)CCCN(C)C)[C@H](C)CN([C@@H](C)CO)C(=O)c2cc(NS(=O)(=O)c3cn(C)cn3)ccc2O1 | inactive | inactive | inactive |

— the antibiotic and cytotoxicity screens of Wong et al. (2023)
